Some of the results follow.
What was measured:
Test in all cases: glycan array binding signal (z-score within array); higher = stronger binding
Conditions in all cases: glycan notation: IUPAC condensed, linker removed
GalNAc(b1-3)GlcNAc = biological target: GalNAc(b1-3)GlcNAc
Method in brief: (§1)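 From the Consortium for Functional Glycomics database, 3228 arrays were curated, keeping only those whose protein sequence was available. Binding is given as a within-array Z-score averaged across arrays sharing a protein sequence and across linkers. Negative Z-scores can be read as non-binding.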

GalNAc(b1-4)Gal(b1-4)Glc = biological target: GalNAc(b1-4)Gal(b1-4)Glc
Method in brief: as §1

GalNAc(b1-4)GlcNAc = biological target: GalNAc(b1-4)GlcNAc
Method in brief: as §1

[1] = biological target: GalNAc(b1-4)GlcNAc(b1-2)Man
Method in brief: as §1

[2] = biological target: GalNAc(b1-4)GlcNAc(b1-2)Man(a1-3)[GalNAc(b1-4)GlcNAc(b1-2)Man(a1-6)]Man(b1-4)GlcNAc(b1-4)GlcNAc
Method in brief: as §1

[3] = biological target: GalNAc(b1-4)GlcNAc(b1-3)GalNAc(b1-4)GlcNAc
Method in brief: as §1

GalNAc(b1-4)GlcNAc6S = biological target: GalNAc(b1-4)GlcNAc6S
Method in brief: as §1

GalNAc(b1-6)GalNAc = biological target: GalNAc(b1-6)GalNAc
Method in brief: as §1

GalNAc3S(b1-4)GlcNAc = biological target: GalNAc3S(b1-4)GlcNAc
Method in brief: as §1

GalNAc3S(b1-4)GlcNAc3S = biological target: GalNAc3S(b1-4)GlcNAc3S
Method in brief: as §1

[4] = biological target: GalNAc3S(b1-4)[Fuc(a1-3)]GlcNAc
Method in brief: as §1

GalNAc4S6S(b1-4)GlcNAc = biological target: GalNAc4S6S(b1-4)GlcNAc
Method in brief: as §1

GalNAc6S(b1-4)GlcNAc = biological target: GalNAc6S(b1-4)GlcNAc
Method in brief: as §1

Glc(a1-4)Glc = biological target: Glc(a1-4)Glc
Method in brief: as §1

[5] = biological target: Glc(a1-4)Glc(a1-4)Glc(a1-4)Glc
Method in brief: as §1

Glc(a1-6)Glc(a1-6)Glc = biological target: Glc(a1-6)Glc(a1-6)Glc
Method in brief: as §1

[6] = biological target: Glc(a1-6)Glc(a1-6)Glc(a1-6)Glc
Method in brief: as §1

Glc(b1-4)Glc = biological target: Glc(b1-4)Glc
Method in brief: as §1

Glc(b1-6)Glc = biological target: Glc(b1-6)Glc
Method in brief: as §1

GlcA(b1-3)Gal = biological target: GlcA(b1-3)Gal
Method in brief: as §1

GlcA(b1-3)GlcNAc = biological target: GlcA(b1-3)GlcNAc
Method in brief: as §1

GlcA(b1-6)Gal = biological target: GlcA(b1-6)Gal
Method in brief: as §1

[7] = biological target: GlcA3S(b1-3)Gal(b1-4)GlcNAc(b1-2)Man
Method in brief: as §1

[8] = biological target: GlcA3S(b1-3)Gal(b1-4)GlcNAc(b1-3)Gal(b1-4)Glc
Method in brief: as §1

[9] = biological target: GlcNAc(a1-3)Gal(b1-4)GlcNAc
Method in brief: as §1

[10] = biological target: GlcNAc(a1-4)Gal(b1-3)GlcNAc
Method in brief: as §1

[11] = biological target: GlcNAc(a1-4)Gal(b1-4)GalNAc
Method in brief: as §1

[12] = biological target: GlcNAc(a1-4)Gal(b1-4)GlcNAc
Method in brief: as §1

[13] = biological target: GlcNAc(a1-4)Gal(b1-4)GlcNAc(b1-3)Gal(b1-4)Glc
Method in brief: as §1

[14] = biological target: GlcNAc(a1-4)Gal(b1-4)GlcNAc(b1-3)Gal(b1-4)GlcNAc
Method in brief: as §1

[15] = biological target: GlcNAc(a1-4)Gal(b1-4)GlcNAc(b1-3)Gal(b1-4)GlcNAc(b1-3)Gal(b1-4)GlcNAc
Method in brief: as §1

[16] = biological target: GlcNAc(a1-4)Gal(b1-4)GlcNAc(b1-3)Gal(b1-4)[Fuc(a1-3)]GlcNAc(b1-3)Gal(b1-4)[Fuc(a1-3)]GlcNAc
Method in brief: as §1

[17] = biological target: GlcNAc(a1-6)Gal(b1-4)GlcNAc
Method in brief: as §1

[18] = biological target: GlcNAc(b1-2)Gal(b1-3)GalNAc
Method in brief: as §1

[19] = biological target: GlcNAc(b1-2)Man(a1-3)[GlcNAc(b1-2)Man(a1-6)]Man(b1-4)GlcNAc(b1-4)GlcNAc
Method in brief: as §1

[20] = biological target: GlcNAc(b1-2)Man(a1-3)[GlcNAc(b1-2)Man(a1-6)]Man(b1-4)GlcNAc(b1-4)[Fuc(a1-6)]GlcNAc
Method in brief: as §1

[21] = biological target: GlcNAc(b1-2)Man(a1-3)[GlcNAc(b1-4)][GlcNAc(b1-2)Man(a1-6)]Man(b1-4)GlcNAc(b1-4)GlcNAc
Method in brief: as §1

[22] = biological target: GlcNAc(b1-2)Man(a1-3)[GlcNAc(b1-4)][GlcNAc(b1-2)Man(a1-6)]Man(b1-4)GlcNAc(b1-4)[Fuc(a1-6)]GlcNAc
Method in brief: as §1

[23] = biological target: GlcNAc(b1-2)[GlcNAc(b1-4)]Man(a1-3)[GlcNAc(b1-2)Man(a1-6)]Man(b1-4)GlcNAc(b1-4)GlcNAc
Method in brief: as §1

[24] = biological target: GlcNAc(b1-2)[GlcNAc(b1-4)]Man(a1-3)[GlcNAc(b1-4)][GlcNAc(b1-2)Man(a1-6)]Man(b1-4)GlcNAc(b1-4)GlcNAc
Method in brief: as §1

[25] = biological target: GlcNAc(b1-2)[GlcNAc(b1-4)]Man(a1-3)[GlcNAc(b1-4)][GlcNAc(b1-2)[GlcNAc(b1-6)]Man(a1-6)]Man(b1-4)GlcNAc(b1-4)GlcNAc
Method in brief: as §1

[26] = biological target: GlcNAc(b1-2)[GlcNAc(b1-4)]Man(a1-3)[GlcNAc(b1-4)][GlcNAc(b1-2)[GlcNAc(b1-6)]Man(a1-6)]Man(b1-4)GlcNAc(b1-4)[Fuc(a1-6)]GlcNAc
Method in brief: as §1

[27] = biological target: GlcNAc(b1-2)[GlcNAc(b1-6)]Man(a1-6)[GlcNAc(b1-2)Man(a1-3)]Man(b1-4)GlcNAc(b1-4)GlcNAc
Method in brief: as §1

[28] = biological target: GlcNAc(b1-2)[GlcNAc(b1-6)]Man(a1-6)[GlcNAc(b1-2)Man(a1-3)]Man(b1-4)GlcNAc(b1-4)[Fuc(a1-6)]GlcNAc
Method in brief: as §1

[29] = biological target: GlcNAc(b1-2)[GlcNAc(b1-6)]Man(a1-6)[GlcNAc(b1-4)][GlcNAc(b1-2)Man(a1-3)]Man(b1-4)GlcNAc(b1-4)GlcNAc
Method in brief: as §1

B1: HPAIIITrx (Helix pomatia), Q1KM18 (protein)
chain: MLFVTIISLGLLAIVHGQCALKTIAFSAAIDREQTFDANQVVIYDIVITNHGNAYDNSTGLFTAPVDGMYSFQLNLLTIKEKEGWLELVHNGQLKVSVYAKQDSTYDSSSNSVIIKMKEGDRVNVRAHKKSGLFGRDDELYNTFSGHFLSGL
glycan array binding signal (z-score) (GalNAc(b1-3)GlcNAc): -0.392
glycan array binding signal (z-score) (GalNAc(b1-4)Gal(b1-4)Glc): -0.196
glycan array binding signal (z-score) (GalNAc(b1-4)GlcNAc): -0.239
glycan array binding signal (z-score) [1]: -0.358
glycan array binding signal (z-score) [2]: 0.75
glycan array binding signal (z-score) [3]: -0.463
glycan array binding signal (z-score) (GalNAc(b1-4)GlcNAc6S): -0.265
glycan array binding signal (z-score) (GalNAc(b1-6)GalNAc): -0.412
glycan array binding signal (z-score) (GalNAc3S(b1-4)GlcNAc): -0.402
glycan array binding signal (z-score) (GalNAc3S(b1-4)GlcNAc3S): -0.241
glycan array binding signal (z-score) [4]: -0.376
glycan array binding signal (z-score) (GalNAc4S6S(b1-4)GlcNAc): -0.072
glycan array binding signal (z-score) (GalNAc6S(b1-4)GlcNAc): -0.418
glycan array binding signal (z-score) (Glc(a1-4)Glc): -0.177
glycan array binding signal (z-score) [5]: -0.24
glycan array binding signal (z-score) (Glc(a1-6)Glc(a1-6)Glc): -0.348
glycan array binding signal (z-score) [6]: 0.008
glycan array binding signal (z-score) (Glc(b1-4)Glc): -0.122
glycan array binding signal (z-score) (Glc(b1-6)Glc): 0.224
glycan array binding signal (z-score) (GlcA(b1-3)Gal): -0.167
glycan array binding signal (z-score) (GlcA(b1-3)GlcNAc): -0.338
glycan array binding signal (z-score) (GlcA(b1-6)Gal): -0.196
glycan array binding signal (z-score) [7]: -0.21
glycan array binding signal (z-score) [8]: -0.304
glycan array binding signal (z-score) [9]: 0.416
glycan array binding signal (z-score) [10]: 0.392
glycan array binding signal (z-score) [11]: -0.052
glycan array binding signal (z-score) [12]: 1.84
glycan array binding signal (z-score) [13]: 1.52
glycan array binding signal (z-score) [14]: 1.69
glycan array binding signal (z-score) [15]: 2.06
glycan array binding signal (z-score) [16]: 1.47
glycan array binding signal (z-score) [17]: -0.341
glycan array binding signal (z-score) [18]: -0.179
glycan array binding signal (z-score) [19]: -0.058
glycan array binding signal (z-score) [20]: -0.293
glycan array binding signal (z-score) [21]: -0.401
glycan array binding signal (z-score) [22]: -0.48
glycan array binding signal (z-score) [23]: -0.41
glycan array binding signal (z-score) [24]: -0.42
glycan array binding signal (z-score) [25]: -0.387
glycan array binding signal (z-score) [26]: -0.517
glycan array binding signal (z-score) [27]: -0.381
glycan array binding signal (z-score) [28]: -0.399
glycan array binding signal (z-score) [29]: -0.453

Reference: the supplement of paper PMC8728848
